In ChEMBL document CHEMBL1201862, “PubChem BioAssay data set” (2004):
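Interpolation was linear, between the two tested concentrations surrounding the appropriate level; five concentrations were tested over 48 hours in 96-well plates. At the GI50, growth is halved.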 Active and inactive are the calls of the source. No stated cut-off is given here; in the data, active = GI50 up to about 1.1 µM and inactive = higher.

System: NCI-H322M
Test: inhibition of tumour cell growth, NCI panel, 48 h

Row | SMILES | GI50
1 | CC(=O)NNc1nc(C)c(C(=O)/C=C/c2ccc(/C=C/C(=O)c3sc(NNC(C)=O)nc3C)cc2)s1 | inactive: > 100 µM
2 | N#CCCN(CCN(CCN(C(=O)Nc1ccccc1)c1ccccc1)C(=O)Nc1ccccc1)C(=O)Nc1ccccc1 | inactive: > 100 µM
3 | COC1(OC)C2C=CC1C([C@](C)(N)CO)C2 (stereo partly specified) | inactive: > 100 µM
4 | N#C/C(=C\c1ccncc1)c1csc2ccccc12 | inactive: 30.1 µM
5 | Nc1nc(-c2ccccc2)cc(-c2ccc(F)cc2)c1-c1ccc(Cl)cc1 | inactive: > 100 µM
6 | O=c1[nH]nc(Cc2ccccc2)n1/N=C/c1cccnc1 | inactive: > 100 µM
7 | CC(C)=CCC[C@](C)(O[C@@H]1O[C@H](CO)[C@@H](O)[C@H](O)[C@H]1O)[C@H]1CC[C@]2(C)[C@@H]1[C@H](O)C[C@@H]1[C@@]3(C)CC[C@H](O)C(C)(C)[C@@H]3[C@@H](O[C@@H]3O[C@H](CO)[C@@H](O)[C@H](O)[C@H]3O)C[C@]12C [GINSENOSIDE RG1] | inactive: > 100 µM
8 | OC(c1ccc(F)cc1)(c1ccc(F)cc1)C1CC1 | inactive: 36.1 µM
9 | CCOC(=O)Nc1nc(-c2ccccc2)c(C)s1 | inactive: 68.5 µM
10 | COC(=O)/C=C(\C)CC(O)/C=C(\C)CCC=C(C)C (stereo unspecified) | inactive: > 100 µM
11 | CCOCN1COCN/C1=N/C#N | inactive: > 100 µM
12 | CC[N+](CC)(CC)/C(=N\S(=O)(=O)c1ccc(Cl)cc1)[N-]S(=O)(=O)c1cc(C)c(Cl)cc1S | inactive: 66.1 µM
13 | CC1(C(=O)O)CCOc2ccccc21 (stereo unspecified) | inactive: > 100 µM
14 | CC(=O)Nc1ccc2nc(-c3ccccn3)c(-c3ccccn3)nc2c1 | inactive: > 100 µM
15 | CN(C)c1n/c(=N/Cc2ccccc2)ss1 | inactive: > 10 µM
16 | O=C1NC(=S)NC(=O)C1=Cc1cccc2cc3ccccc3cc12 | inactive: 3.21 µM
17 | Cn1c(=O)nc2n(CCO)c(-c3ccccc3)c(-c3ccccc3)nc-2c1=O | inactive: > 100 µM
18 | COc1ccc(-c2oc3cc(OC)c(OC)c(OC)c3c(=O)c2OC)cc1OC [HEXAMETHOXYFLAVONE] | inactive: > 100 µM
19 | COc1ccc(C(=O)Cc2cc(OC)ccc2OC)cc1 | inactive: > 100 µM
20 | CCN(CC)c1c(N(CC)CC)c(=O)c1=O | inactive: 24.7 µM
21 | OC(Cc1ccccc1)(Cc1ccccc1)c1ccccc1 | inactive: 20.9 µM
22 | COc1ccc(/C(Cl)=C(\c2ccc(OCCN(C)C)cc2)c2ccc(OC(=O)C(C)(C)C)cc2)cc1 | inactive: 14.9 µM

Row | SMILES | GI50
23 | CC(=O)c1ccc2c(c1)CC1(C2)Cc2cc3c(cc2C1=O)CCC3 (stereo unspecified) | inactive: 30.7 µM
24 | CC(C)(O)C1CC[C@]2(C)[C@H]3CC[C@@H]4[C@@]5(C)CCCC(C)(C)[C@@H]5CC[C@@]4(C)[C@]3(C)CC[C@@H]12 (stereo partly specified) | inactive: > 100 µM
25 | Cc1c2c(cc3c1[nH]c1ccccc13)C(c1ccc(Cl)cc1)=NCC2 | active: 0.291 µM
26 | O=C1N/C(=N/N=C/c2ccccc2)N/C1=C\c1cccs1 | inactive: 21.7 µM
27 | CC1(C)CCOC(=O)C(Cl)CC1Cl (stereo unspecified) | inactive: > 100 µM
28 | Clc1cc(OC2C3CC4CC(C3)CC2C4)nc(Cl)n1 (stereo unspecified) | inactive: 17.3 µM
29 | O=c1cc(-c2ccccc2)oc2c1ccc1nc3ccccc3c(O)c12 | inactive: 42 µM
30 | CCCCCN(CCCCC)CC(C)(C)C(O)c1ccc(OC)c2ccccc12 (stereo unspecified) | inactive: 11.5 µM
31 | CC1=NOC(=O)/C1=C/c1ccc([N+](=O)[O-])cc1 | inactive: > 100 µM
32 | COc1cc2c(cc1OC(=O)c1cc3ccccc3[nH]1)N=C[C@@H]1CCCN1C2=O | inactive: 1.64 µM
33 | O=c1[nH]c2ccccc2cc1C(Cl)=C(Cl)Cl | inactive: > 100 µM
34 | CCCCCCCCCCCCC(=O)CCCCC(=O)O | inactive: 15.9 µM
35 | CC(C)C12CCC3(CCC4C(C)(C(=O)O)CCCC4(C)C3C1)C(CN)C2 (stereo unspecified) | inactive: 48.5 µM
36 | N#CC(/N=N/c1ccc(Cl)cc1)c1nc2ccccc2o1 (stereo unspecified) | inactive: > 100 µM
37 | COC(=O)[C@@]1(C)C(=O)CC[C@@H]1C=O | inactive: > 100 µM
38 | O=c1[nH]c(=O)n(COCc2ccccc2)cc1Nc1ccc(Br)cc1 | inactive: > 100 µM
39 | CC(C)CC(=O)CC(O)C(Cl)(Cl)Cl (stereo unspecified) | inactive: > 100 µM
40 | Cc1cc(NS(=O)(=O)c2ccc(Nc3c4ccccc4nc4c(C(=O)NCCO)cccc34)cc2)no1 | inactive: 25.5 µM
41 | C=C1C[C@@H]2O[C@H]3[C@H]4[C@@H](C[C@@H](C)[C@@H](OC(C)=O)[C@H]42)[C@@H](C)CO[C@@]3(C)[C@H](OC(=O)CCCCCCC)C[C@H]1O | inactive: 17.7 µM
42 | CSc1sc(=S)sc1C(=O)N(C)c1ccccc1 | inactive: > 100 µM
43 | COc1ccc(/C=N/NC(=O)c2ccccc2Nc2ccccc2C(=O)N/N=C/c2ccc(OC)c(OC)c2)cc1OC | inactive: > 100 µM
44 | O=[N+]([O-])c1ccc2c(c1)S(=O)(=O)N1Cc3ccccc3CCN21 | inactive: > 100 µM

Row | SMILES | GI50
45 | COC(=O)c1cc(-c2ccc3ccccc3c2)nc(O)c1C#N | inactive: > 100 µM
46 | N#Cc1nc(-c2ccco2)oc1N | inactive: > 10 µM
47 | CC[C@H]1CNC(=O)CC1CC(=O)OC (stereo partly specified) | inactive: > 100 µM
48 | COC(=O)C1=C(C[S+]([O-])c2ccc([N+](=O)[O-])cc2[N+](=O)[O-])C2C=CC1C2 (stereo unspecified) | inactive: > 100 µM
49 | CC1C(=O)CCC1C(Sc1ccccc1)(Sc1ccccc1)Sc1ccccc1 (stereo unspecified) | inactive: 33.3 µM
50 | CCOC(=O)c1cc(=O)oc2c1N(C)c1ncccc1N2 | inactive: > 100 µM
51 | OC1c2ccccc2C(O)C2OC12 (stereo unspecified) | inactive: > 100 µM
52 | C=CCN(CC=C)Cn1c(=S)sc2ccccc21 | inactive: > 100 µM
53 | Cc1c(C(=O)O)n2c(C)nnc2c2ccccc12 | inactive: > 100 µM
54 | COc1ccc(C=O)c([N+](=O)[O-])c1 | inactive: 48.5 µM
55 | CCCCCCCCCCCC[C@@H](O)[C@H]1CC[C@H]([C@H](O)CC[C@H](O)[C@@H]2CC[C@@H](CCCCCCCC3=C[C@H](C)OC3=O)O2)O1 | inactive: > 50 µM
56 | Cc1ccc2c3c1O[C@H]1c4nc5ccccc5cc4C[C@@]4(O)[C@@H](C2)N(CC2CC2)CC[C@]314 | inactive: 10.4 µM
57 | COC(=O)[C@H]1CC(=O)C=C2CCCC21 (stereo partly specified) | inactive: > 100 µM
58 | CCOC(=O)c1c(CN2CCOCC2)n(Cc2ccccc2)c2c1cc(O)c1nc(C)c(C)nc12 | inactive: > 100 µM
59 | CN(C)c1ccc(/C=c2\sc3nnc(Cc4ccccc4)n3c2=O)cc1 | inactive: > 10 µM
60 | Oc1cccc2nc3cc(CN4CCOCC4)c(CN4CCOCC4)cc3nc12 | inactive: 83.4 µM
61 | Cn1c2c(c3c(=O)[nH]ncc31)CCCc1ccccc1-2 | inactive: 64.9 µM
62 | CC(C)(C)OC(=O)N1C(=O)C2CCCC21 (stereo unspecified) | inactive: > 100 µM
63 | Oc1ccccc1-c1nn2c(CCCCCCCCc3nnc4sc(-c5ccccc5O)nn34)nnc2s1 | inactive: 13.1 µM
64 | COc1ccccc1C1C(Cl)C(=O)N1n1cnc2ccccc2c1=O (stereo unspecified) | inactive: > 100 µM
65 | CCOC(=O)N1CCc2cc(OC)c(OC)cc2/C1=C\c1ccc(OC)c(OC)c1 | inactive: 42.3 µM
66 | CCOC(=O)CC[C@@H](NC(=O)c1ccc(NCc2ccc3nc(OC)c(OC)nc3c2)cc1)C(=O)OCC | inactive: 57.9 µM
